Data: PubChem BioAssay AID1476 (National Center for Advancing Translational Sciences (NCATS), 2009)
In all, about 200,000 compounds went through this assay and about 4,500 (2.2%) were called active. Inconclusive results, whose numbers are uncertain, are shown with a selection of clear calls. Calls come from the whole dose curve; as a rule, active = well fitted inhibition curve with a large enough effect; inconclusive = small, poorly fitted or top-dose-only effect, or effect the other way; inactive = flat fitted curve, though single readings scatter. A potency beside an inconclusive call is a rough fit, not a confirmed value.

Target: Cruzipain (Trypanosoma cruzi) (UniProt P25779)
Test: qHTS Assay for Promiscuous and Specific Inhibitors of Cruzain (without detergent); note: nearly all actives have a fitted effect of over 40% in size;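 for max response, negative = inhibition: plate controls were enzyme without inhibitor for no effect and buffer without enzyme for full effect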
Conditions: purified cruzain, Z-FR-AMC fluorescence, no detergent
Summary of the method: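 Purified cruzain at 1.5 nM, pre-incubated 15 min with compound at room temperature in 100 mM sodium acetate pH 5.5, 5 mM DTT, 0.00005% Triton X-100. Reaction started with 2 uM Z-FR-AMC; AMC fluorescence increase over 60 s gives rate.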
Potency is the fitted concentration of half-maximal effect; tags give direction and shape of the fitted curve.

Sequence of UniProt P25779 (P25779 whole entry, looked up): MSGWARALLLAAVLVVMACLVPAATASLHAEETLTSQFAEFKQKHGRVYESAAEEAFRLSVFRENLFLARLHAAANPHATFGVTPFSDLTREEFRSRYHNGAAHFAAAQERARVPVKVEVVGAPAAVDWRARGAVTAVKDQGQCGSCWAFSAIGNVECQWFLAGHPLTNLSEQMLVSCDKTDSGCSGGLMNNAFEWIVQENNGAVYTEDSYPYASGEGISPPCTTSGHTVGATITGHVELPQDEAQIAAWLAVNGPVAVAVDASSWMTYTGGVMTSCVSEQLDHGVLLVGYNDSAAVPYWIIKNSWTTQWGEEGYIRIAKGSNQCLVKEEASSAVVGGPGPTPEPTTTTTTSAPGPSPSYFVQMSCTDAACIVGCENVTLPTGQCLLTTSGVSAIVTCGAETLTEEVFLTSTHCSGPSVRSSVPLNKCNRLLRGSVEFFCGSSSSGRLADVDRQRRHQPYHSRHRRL

| Compound | Potency | max response, negative = inhibition |
| --- | --- | --- |
| O=c1c2c3c(sc2ncn1/N=C/c1ccc([N+](=O)[O-])o1)CCCC3 | inconclusive: 39.8 µM [inhibitor, single point] | – |
| CCOC(=O)c1noc2ncnc(N3CCN(c4cccc(C(F)(F)F)c4)CC3)c12 | inconclusive: 20 µM [activator, partial curve] | – |
| Clc1ccc(-c2cc3ccccc3[nH]2)cc1 | inconclusive: 31.6 µM [inhibitor, single point] | – |
| CCOc1ccccc1C(=O)NCC(c1cccs1)S(=O)(=O)c1ccc(F)c(C)c1 (stereo not given) | – | inactive: -10.8% |
| CCc1ccc(NC(=O)CSc2nc3c(c(=O)[nH]2)CN(Cc2ccc(C)cc2)CC3)cc1 | – | inactive: 0.867% |
| COc1ccc(Cl)cc1Nc1nc(-c2sc(NC(=O)c3ccco3)nc2C)cs1 | active: 15.8 µM | – |
| O=C(Nc1cccc(NC(=O)c2ccccc2[N+](=O)[O-])n1)c1ccccc1[N+](=O)[O-] | inconclusive: 31.6 µM [inhibitor, single point] | – |
| COc1cc(Cl)c(C)cc1NC(=O)Cn1c2ncccc2c(=O)n1-c1ccccc1 | – | inactive: 2.42% |
| CCc1ccc(-n2nnc(-c3nc(-c4ccc(C)cc4)no3)c2N)cc1 | – | inactive: 20.5% |
| COc1ccc(/C=C2\CCCC3C2=NN(C(=O)c2scnc2C)C3c2ccc(OC)cc2)cc1 (stereo not given) | inconclusive: 39.8 µM [inhibitor, single point] | – |
| NC(=O)c1ccccc1NC(=O)CN1c2ccccc2S(=O)(=O)c2ccccc21 | – | inactive: -8.2% |
| Cc1nnc(SCC(=O)N/N=C/c2cn(-c3ccccc3)nc2-c2ccccc2)n1-c1ccccc1 | inconclusive: 39.8 µM [activator, single point] | – |
| Cc1nc2ccccc2c2oc(C(=O)NCC3COc4ccccc4O3)cc12 (stereo not given) | inconclusive: 39.8 µM [activator, single point] | – |
| O=C1c2ccccc2NC(c2c(Cl)cccc2Cl)N1Cc1ccccc1 (stereo not given) | inconclusive: 39.8 µM [inhibitor, single point] | – |
| COc1cc(C(=O)Nc2nc(-c3ccc(F)cc3)cs2)ccc1OCC(=O)N1CCOCC1 | inconclusive: 39.8 µM [activator, single point] | – |
| Nc1nc(N)c(Cn2ccnc2)c(=O)[nH]1 | – | inactive: 12.5% |
| Clc1ccc(Oc2nc3ccccc3n3cccc23)cc1 | inconclusive: 31.6 µM [inhibitor, single point] | – |
| O=C1Nc2ccc(I)cc2/C1=C/c1cc(Br)c(O)c(Br)c1 | inconclusive: 10 µM [inhibitor, partial curve, poor fit] | – |
| COc1ccc(/C=C/C(=O)c2ccc(Cl)cc2)c(OC)c1 | – | inactive: 0.619% |
| CC(=O)Nc1cccc(Oc2ncnc3scc(-c4ccc(C(C)C)cc4)c23)c1 | inconclusive: 25.1 µM [activator, partial curve] | – |
| COc1cccc(Nc2ncc3nc(CCc4ccccc4)c(=O)n(CCC#N)c3n2)c1 | – | inactive: -0.789% |
| Cc1cccc(-n2c3nc(=O)[nH]c(=O)c-3cc3c(C)nn(-c4ccccc4)c32)c1C | inconclusive: 39.8 µM [inhibitor, single point] | – |

| Compound | Potency | max response, negative = inhibition |
| --- | --- | --- |
| CCOC(=O)C(=NC1CCCCC1)NNc1cccc(C(F)(F)F)c1 | – | inactive: -0.286% |
| NC(=O)c1c(NC(=O)CSc2nc3c(c(C(F)(F)F)n2)CCc2ccccc2-3)sc2c1CCCC2 | inconclusive: 6.31 µM [inhibitor, single point] | – |
| Cc1ccc(S(=O)(=O)N2CCOCC2)cc1NC(=O)COC(=O)c1ccccc1OCc1c(C)noc1C | inconclusive: 31.6 µM [activator, single point] | – |
| CCOc1ccc2nc(-c3ccccc3)nc(SCC(=O)Nc3ncc(C)s3)c2c1 | inconclusive: 39.8 µM [inhibitor, single point] | – |
| COc1cccc(Nc2nnc(SCn3nnc4ccccc4c3=O)s2)c1 | inconclusive: 31.6 µM [inhibitor, single point] | – |
| COc1ccc(NC(=O)CN2C(=O)CCc3cc(S(=O)(=O)N4CCOCC4)ccc32)cc1Cl | inconclusive: 31.6 µM [activator, single point] | – |
| COc1cc2c(C(=O)N(C)c3cc(Cl)ccc3OC)cn(CC(C)C)c(=O)c2cc1OC | inconclusive: 39.8 µM [activator, single point] | – |
| Cc1ccc(NC(=O)Cn2c(-c3cncs3)nc3ccccc32)cc1Br | – | inactive: -9.04% |
| CC(C)NC(=O)NC(=O)CSc1nnc(COc2ccccc2F)n1C(C)C1CC2CCC1C2 (stereo not given) | inconclusive: 31.6 µM [activator, single point] | – |
| CCCc1nccn1S(=O)(=O)c1cc(Br)ccc1OC | – | inactive: -5.21% |
| COc1ccc(C)cc1S(=O)(=O)N1CCN(S(=O)(=O)c2cc(C)ccc2OC)C(C)C1 (stereo not given) | inconclusive: 31.6 µM [activator, single point] | – |
| CCN(CC)C(=O)CSc1nc2ccccc2c(=O)n1Cc1ccco1 | – | inactive: -3.94% |
| COc1cccc(N2CCN(S(=O)(=O)c3ccc4nc(-c5ccccc5)[nH]c4c3)CC2)c1 | inconclusive: 39.8 µM [inhibitor, single point] | – |
| COc1cccc(Cn2c(CNS(=O)(=O)c3ccc4c(c3)CCCC4)nc3cccnc32)c1 | – | inactive: -22.5% |
| COc1ccccc1CNc1ncnc2c1c(-c1ccccc1)cn2-c1cccc(C)c1 | inconclusive: 31.6 µM [inhibitor, single point] | – |
| CC1CCN(S(=O)(=O)c2ccc3c(c2)N(CC(=O)N2CCN(c4ccccc4)CC2)C(=O)CO3)CC1 | inconclusive: 39.8 µM [activator, single point] | – |
| CSCCC(NC(=O)c1ccco1)C(=O)OCC(=O)Nc1ncc(Cl)c(C)c1Cl (stereo not given) | inconclusive: 25.1 µM [inhibitor, single point] | – |
| CCc1ccc2c(c1)-c1ccccc1S(=O)(=O)N2CC(=O)N1CCC(C)CC1 | – | inactive: -16.8% |
| O=C(CSc1nc(Cc2ccccc2)nc2ccccc12)Nc1nc2c(s1)CCCC2 | active: 25.1 µM | – |
| COc1ccccc1CN1CCN(C2CCN(C(=O)NC(C)C)CC2)C(=O)C1=O | – | inactive: -4.86% |
| Cc1ccc(OCC(=O)N2CC3(C)CC2CC(C)(C)C3)cc1 (stereo not given) | – | inactive: 12.9% |
| CCOC(=O)CC(=O)CSc1nnc2c(n1)[nH]c1ccccc12 | inconclusive: 39.8 µM [activator, single point] | – |

| Compound | Potency | max response, negative = inhibition |
| --- | --- | --- |
| Cc1ccc(S(=O)(=O)Nc2cc(C(F)(F)F)ccc2N2CCOCC2)cc1C | inconclusive: 25.1 µM [activator, partial curve] | – |
| c1ccc(Cn2c(-c3ccco3)nc3nc4ccccc4nc32)cc1 | inconclusive: 31.6 µM [inhibitor, single point] | – |
| Cc1ccc(CCNC(=O)c2cc(-c3ccc(Cl)cc3)n[nH]2)cc1 | inconclusive: 12.6 µM [inhibitor, partial curve] | – |
| O=C(COC(=O)c1cc(-c2ccccc2)nc2c(Cl)cccc12)c1ccc(F)cc1 | – | inactive: -4.18% |
| CCC1=C(OC(=O)N(CC)CC)N2C(=O)OC(=NCC(=O)OC)[C@]2(Cc2ccccc2)[C@H]2C1=CC[C@H]1C(=O)N(c3ccccc3)C(=O)[C@H]12 | inconclusive: 39.8 µM [activator, single point] | – |
| CN(C(=O)CSc1nc2ccccc2n1Cc1cccc(C(F)(F)F)c1)c1ccccc1 | inconclusive: 25.1 µM [activator, single point] | – |
| N=C(N)SCc1cccc2c(=O)cc(-c3ccccc3)oc12 | – | inactive: -2.56% |
| COc1cccc(-c2cc(C(=O)Nc3nc4ccccc4s3)c3ccccc3n2)c1 | active: 12.6 µM | – |
| O=C(Nc1ccc(S(=O)(=O)NCc2ccccc2)cc1)Nc1ccc2c(c1)OCO2 | inconclusive: 25.1 µM [inhibitor, single point] | – |
| N#CCSc1nc2sc3c(c2c(=O)n1C1CCCCC1)CCCC3 | inconclusive: 39.8 µM [inhibitor, single point] | – |
| COc1ccc(CNc2ncnc3ccc(-c4ccc5c(c4)OCO5)cc23)c(OC)c1 | inconclusive: 39.8 µM [inhibitor, single point] | – |
| COc1ccc(C)cc1NC(=O)CC(=O)Nc1ccc2nc3n(c(=O)c2c1)CCCCC3 | inconclusive: 39.8 µM [activator, single point] | – |
| CC(C)CN(CCCNC(=O)c1cn(C)c2ccc(S(=O)(=O)N(C)C3CCCCC3)cc2c1=O)CC(C)C | – | inactive: -12% |
| COc1cccc(NC(=O)C(CCSC)NC(=O)C2CCC(C)CC2)c1 (stereo not given) | – | inactive: 0.268% |
| Cc1ccn(C(=O)c2cc3cc(Cl)ccc3oc2=O)n1 | inconclusive: 7.94 µM [inhibitor, partial curve] | – |
| CCCOc1ccc(Br)cc1-c1cc(-c2ccc(Cl)cc2)[nH]c1-c1ccncc1 | inconclusive: 7.94 µM [inhibitor, single point] | – |
| Cc1cccc(OC(=O)c2cc(-c3ccc(Cl)cc3)on2)c1C | – | inactive: 2.6% |
| COc1ccccc1CNC(=O)c1ccc2nc3[nH]c4ccccc4c3nc2c1 | inconclusive: 39.8 µM [inhibitor, single point] | – |
| Cc1cc2ccccc2n2c(SCC(=O)Nc3ccc(S(=O)(=O)N4CCCCC4)cc3)nnc12 | inconclusive: 25.1 µM [activator, single point] | – |
| O=C(NCc1ccco1)c1ccc2c(c1)N(Cc1ccccc1F)C(=O)c1ccccc1S2=O (stereo not given) | inconclusive: 20 µM [inhibitor, partial curve] | – |
| CCOC(=O)c1ccc(-c2c(C)cc3oc(=O)cc(-c4ccccc4)c3c2C)cc1 | active: 4.47 µM | – |
